The text below walks through data of ChEMBL document CHEMBL4888484, “Replenishing the malaria drug discovery pipeline: Screening and hit evaluation of the MMV Hit Generation Library 1 (HGL1) against asexual blood stage Plasmodium falciparum ,using a nano luciferase reporter read-out” (2022).

The whole screen tested about 150,000 compounds, of which about 540 (0.36%) showed an effect of 50% or more. This is one part of the list.

By % Inhibition is commonly meant the change of the read-out against control, counted positive when it falls.

This test relates to Plasmodium falciparum. Description: Primary screen in NF54 nanoGlo assay, in single point, at 2uM, 72h; a lower Z score goes with more inhibition. The conditions noted are these: timepoint 72 hour. In kind it is functional, Erythrocyte.
`CC(C)Cc1n[nH]c(NC(=O)c2csc(NC3CC3)n2)n1`: the “% Inhibition” value was -11% and the Z score worked out at 1.17.
Take `COCCCN(CCC(=O)NCCN1CCOCC1)C(=O)c1cc(C)oc1C`: the “% Inhibition” value is recorded as 3% and the Z score is recorded as -0.43.
In the same order, the values of `CCCC(CCC)C(=O)NCc1cccnc1` are 5% and -0.71.
For the compound `COc1cccc(-c2nc3c([nH]2)CCN(C(=O)CC(C)(C)C)C3)c1`, the “% Inhibition” value came out at 0% and the Z score is given as 0.08.
In the same order, the values of `CCc1nc(CNC(=O)NCC2CCCOC2C(C)(C)C)cs1` (configuration not stated) are -7% and 0.89.
In the same order, the values of `Cn1n[n+](CC#N)c(C(=O)Nc2ccccc2)c1[O-]` are 3% and -0.46.
Consider `C[C@@H](Cn1ccnc1)NC(=O)Cc1cccs1`, for which the “% Inhibition” value was -13% and the Z score is recorded as 1.13.
As for `CC(C)c1nc(-c2noc(CS(=O)(=O)C3CC3)n2)cs1`, the “% Inhibition” value is on record as -12% and the Z score is given as 1.81.
For the compound `CCOC(=O)N1CCN(C(=O)C2c3ccccc3C(=O)N(C3CCCCC3)C2c2ccc(OC)cc2)CC1` (configuration not stated), the “% Inhibition” value worked out at 40% and the Z score was -4.5.
In the same order, the values of `CC1CCN(Cc2ccccc2CNc2ccc3nnnn3n2)CC1` are -3% and 0.24.
Take `O=C1NCC2(CCN(c3ncccc3C(F)(F)F)CC2)O1`: the “% Inhibition” value is reported as -5% and the Z score came to 0.82.
For `O=C1CCc2cc(C(=O)c3c(F)cccc3F)ccc2N1`, in that order: -2% and 0.32.
In the same order, the values of `COc1ccc(C(=O)N2CC[C@H](Nc3cccnc3)C2)c(OC)c1` are -11% and 1.36.
Consider `CC[C@](C)(O)c1cn(Cc2coc(C(C)(C)C)n2)nn1`, for which the “% Inhibition” value is recorded as -13% and the Z score came out at 1.45.
In the case of `CNC(=O)[C@@H]1C[C@H](Oc2ccccc2)CN1S(=O)(=O)c1cc(OC)ccc1OC`, the “% Inhibition” value is recorded as -11% and the Z score is listed as 1.47.
In the same order, the values of `COc1ccccc1-c1nc(NCCc2ccccc2)nc2nn(-c3cccc(F)c3)c(N)c12` are -1% and 0.18.
In the same order, the values of `c1ccn2cc(Cc3nc(C4CC4)cs3)nc2c1` are 5% and -0.54.
For `Cc1nc(CN[C@@H](C)CC(=O)N2CCCCCC2)sc1C`, in that order: -9% and 0.74.
Turning to `Cc1noc2ncnc(N[C@@H](C)CCc3ccccc3)c12`, the “% Inhibition” value was -6% and the Z score stood at 1.09.
Regarding `Cc1csc2ncnc(N3CC(C)OC(C4CC4)C3)c12` (configuration not stated), the “% Inhibition” value is recorded as -11% and the Z score came to 1.47.
For `Cc1nnsc1CN(C)C(=O)c1onc2ccccc12`, in that order: -10% and 2.01.
For `CCCn1nnnc1CN(C)Cc1nccn1C`, in that order: -13% and 1.8.
For the compound `C[C@H]1CN(C(=O)NCc2ccc(Cl)s2)CCO1`, the “% Inhibition” value is given as -8% and the Z score came out at 1.53.
For `O=C(Nc1cccc(-c2nc3ncccc3o2)c1)[C@@H]1OCCN(C2CC2)[C@H]1c1ccccc1`, in that order: -20% and 2.59.
In the case of `CCc1nccc(CN2CC[C@@H]3NC(=O)NCCNC(=O)c4cc(OCCOC)cc(c4)Oc4cccc(c4)CO[C@H]3C2)n1`, the “% Inhibition” value was -10% and the Z score was 1.23.
In the case of `C[C@H](Oc1ccccc1Br)C(=O)Nc1cc(-c2nccn2C)no1`, the “% Inhibition” value was determined as 1% and the Z score is reported as -0.1.
Take `c1ccc2c(-c3noc([C@H]4CCOC4)n3)n[nH]c2c1`: the “% Inhibition” value was -9% and the Z score is listed as 0.95.
For the compound `CC(C)(C)c1ccc(S(=O)(=O)C2CS(=O)(=O)CC2N2CCN(c3ncccn3)CC2)cc1` (configuration not stated), the “% Inhibition” value is -6% and the Z score is recorded as 0.77.
In the same order, the values of `CS(=O)(=O)N1C[C@H]2CC[C@@H](C1)N(C(=O)Cc1ccc(F)cc1Cl)C2` are -5% and 0.96.
For `CN1C[C@@H](C(=O)NCC#CCOc2ccc3c(c2)OCO3)CC1=O`, the “% Inhibition” value is listed as -21% and the Z score came to 2.65.
For `COc1ccc(-c2cnc3ncnn3c2N2CCCN(S(=O)(=O)c3ccc(F)c(F)c3)CC2)cc1`, in that order: -9% and 0.9.
For `COCc1ccc(C(=O)NCC#N)cc1OC`, in that order: -4% and 0.59.
`CCc1ccc(C(C)(C)CN[C@H]2CCCS(=O)(=O)C2)cc1`: the “% Inhibition” value is reported as -7% and the Z score is listed as 0.98.
In the same order, the values of `CN1CCC[C@H](CNC(=O)c2ccc(F)c(COCC3CC3)c2)C1` are -11% and 1.19.
In the same order, the values of `CC(=O)Nc1onc(C)c1-c1ccc(C)c(S(=O)(=O)NC(C)C)c1` are 3% and -0.47.
For `COCC(=O)N1C[C@@H](C)[C@H](c2nc(-c3ccccc3)no2)C1`, the “% Inhibition” value is -10% and the Z score worked out at 1.2.
For `COc1ccc2c(c1)CCN(CCn1cnnc1)CC2`, in that order: -6% and 0.65.
As for `CC1(C)NC(=O)N(CCN2CCOc3ccccc32)C1=O`, the “% Inhibition” value is recorded as -1% and the Z score is 0.11.
In the same order, the values of `CCn1nc(Cc2cccc(Cl)c2)nc1[C@H]1CC(=O)N(C)C1(C)C` are -18% and 2.09.
In the same order, the values of `O=C(Nc1cccc2c1CCCC2)n1ncc2cc(Cl)ccc21` are -8% and 1.24.
For `COc1ccccc1CCNC(=O)N(C)CC1(O)CCCCCC1`, in that order: -8% and 1.19.
`CCc1cccc(NC(=O)CC(C)(C)C)c1`: the “% Inhibition” value was -12% and the Z score was 1.64.
For `CC1CCCCC1NC(=O)C1c2cccn2CC(=O)N1CCc1ccc(Cl)cc1` (configuration not stated), in that order: 9% and -1.19.
Turning to `O=C(c1ccco1)N1CCn2nc(C3CC3)cc2C1`, the “% Inhibition” value amounted to 15% and the Z score is -1.94.
On to `Nc1cc(C2CCN(S(=O)(=O)Cc3ccc(F)cc3)CC2)no1`, for which the “% Inhibition” value stood at 10% and the Z score is listed as -1.61.
For `CC(NCC(O)CC1CCCC1)c1cnn(C)c1` (configuration not stated), the “% Inhibition” value is listed as -12% and the Z score turned out to be 1.51.
Consider `COc1c(F)c(F)cc(C(=O)N2CC(Cn3cncn3)C2)c1F`, for which the “% Inhibition” value was -2% and the Z score turned out to be 0.4.
In the same order, the values of `CC(C)CC(C)(C)C(=O)NCCS(=O)(=O)c1ccccc1F` are -7% and 0.72.
For `CC1(C)CN(C(=O)c2cnco2)c2ccc(Cl)cc21`, in that order: 3% and -0.51.
Consider `O[C@@]1(C(F)F)CCN(CCOc2cc(Cl)cc(Cl)c2)C1`, for which the “% Inhibition” value is reported as -14% and the Z score amounted to 1.67.
In the same order, the values of `COc1cc(N[C@H]2CCCN(S(N)(=O)=O)C2)cc(OC)c1` are -6% and 0.85.
Regarding `CC(=O)N1CCN(C(=O)c2c(C)noc2C(C)C)CC1`, the “% Inhibition” value was -9% and the Z score stood at 1.32.
As to `O=C(CN1CCC2(C1)OCCO2)Nc1cccc(C(=O)NC2CC2)c1`, the “% Inhibition” value is reported as -14% and the Z score stood at 1.81.
As to `COCCc1nsc(N2CCNC(=O)CCN(C(=O)[C@H](C)n3cncn3)CC2)n1`, the “% Inhibition” value was -7% and the Z score was found to be 0.67.
For `O=C(c1ccc(N2CCN(C(=O)c3ccccc3)CC2)cc1)c1cccc(F)c1`, in that order: -10% and 1.96.
As to `CCc1nsc(N2CCOC[C@H]2C2CC2)n1`, the “% Inhibition” value is on record as -4% and the Z score worked out at 0.49.
Consider `CCC(CC)(OC)c1noc([C@H]2CCCOC2)n1`, for which the “% Inhibition” value is on record as -5% and the Z score is 0.7.
In the same order, the values of `c1ccc(C(c2ccccc2)N2CCN(c3nccs3)CC2)cc1` are 6% and -0.89.
For `COc1ncccc1C(=O)NC[C@@H](c1ccsc1)N(C)C`, in that order: -1% and 0.18.
Regarding `Cn1nnc(CNC(=O)N2CCN(S(=O)(=O)c3ccccc3)CC2)n1`, the “% Inhibition” value is listed as -3% and the Z score came to 0.63.
For `CN(Cc1ccncc1)Cc1ncnn1CC1CCCCC1`, in that order: -12% and 1.48.
Turning to `Cc1cc2cc(NS(=O)(=O)c3cccc4nsnc34)ccc2[nH]1`, the “% Inhibition” value is -7% and the Z score was 1.22.
In the case of `O=C(CNC(=O)OCc1ccccc1)NCc1cncc(-c2ccoc2)c1`, the “% Inhibition” value is on record as 18% and the Z score is -2.27.
`C=C(C)CN(CC)C(=O)NCCc1ccc(S(N)(=O)=O)cc1`: the “% Inhibition” value is recorded as -4% and the Z score was 0.6.
Regarding `CCCCN(CC(=O)N(Cc1ccco1)Cc1cccn1C)C(=O)c1ccc(Cl)c(Cl)c1`, the “% Inhibition” value is recorded as -13% and the Z score was 2.26.
In the same order, the values of `Cc1ccc(-c2noc(C3CC3)n2)cc1-n1cc(C(=O)Nc2cccc(Cl)c2C)c(C)n1` are 2% and -0.29.
For `O=C(Nc1ccc(C(=O)N2CCC[C@@H]2CN2CCOCC2)cc1)c1cccs1`, in that order: -7% and 1.44.
In the case of `CC(C)(C)c1cc(CN2CCCC[C@@H]2CC(=O)O)n[nH]1`, the “% Inhibition” value turned out to be 3% and the Z score is given as -0.48.
For the compound `CCc1ccc(CN2CCC[C@@](O)(CO)CC2)nc1`, the “% Inhibition” value is recorded as -2% and the Z score turned out to be 0.41.
In the same order, the values of `COc1ccc(CCOc2cc([C@@H](CC(N)=O)c3c(C)[nH][nH]c3=O)ccc2OC)cc1` are -5% and 0.61.
Take `O[C@]1(CN2CCCC2)COCCN(c2ncccc2C(F)(F)F)C1`: the “% Inhibition” value is -11% and the Z score is reported as 1.36.
Take `COc1ccccc1OCCC(=O)N(C)C1C(C)CN(Cc2ccccc2)CC1C` (configuration not stated): the “% Inhibition” value is recorded as -6% and the Z score is 0.57.
In the same order, the values of `O=C(Cc1ccc(F)cc1)Nc1cnc(N2CCCCCC2)nc1` are -20% and 1.75.
As for `CN(C[C@@H]1CCCN(C(=O)Cc2ccncc2)C1)C(=O)Cc1ccncc1`, the “% Inhibition” value is on record as -8% and the Z score came to 0.94.
For `O=C(CN1CCOC(c2cccs2)C1)NCC1CCCO1` (configuration not stated), in that order: -3% and 0.45.
In the same order, the values of `CCC(CC)(CC)NC(=O)Cc1sc(CS(C)(=O)=O)nc1C` are 0% and -0.01.
Turning to `Cc1cc(NCC(C)(C)CO)nc(N(C)C)n1`, the “% Inhibition” value is -12% and the Z score turned out to be 2.18.
For `O=S(=O)(c1cccc(F)c1)N1CCN(Cc2nc3cccnc3[nH]2)CC1`, in that order: -1% and 0.05.
Take `Cc1cn2nc(N[C@H]3CCN(c4nccs4)C3)ccc2n1`: the “% Inhibition” value was -10% and the Z score turned out to be 1.75.
In the same order, the values of `O=C(Nc1ccc(Cl)cn1)c1cc(-c2ccccc2)on1` are 17% and -1.95.
For `O=C(N[C@@H]1COCC[C@@H]1OCc1cscn1)c1cc(Cl)c[nH]c1=O`, in that order: -7% and 1.33.
For `Cc1nc(C(C)C)sc1CNC(=O)c1cccc(-n2cnnc2)n1`, in that order: -3% and 0.52.
For `COc1cnc(C(=O)Nc2nnc(C3CC3)s2)cc1O`, the “% Inhibition” value is listed as -1% and the Z score was determined as 0.12.
Regarding `O=C(CCN1CCN(Cc2ccccc2)CC1)Nc1ccc2c(c1)OCO2`, the “% Inhibition” value was -13% and the Z score is 2.24.
Regarding `CC(Oc1ccccc1)C(=O)N1CCC(c2ccc3c(c2)OCO3)C1` (configuration not stated), the “% Inhibition” value is recorded as 3% and the Z score is on record as -0.36.
In the same order, the values of `O=C(Cn1cc(C(F)(F)F)ccc1=O)Nc1ccccn1` are -4% and 0.53.
